# Source: the supplement of paper PMC4466236
# In all, about 33,000 sequences were measured (“E-score (dimensionless, -0.5 to 0.5)”: median about -0.058, highest 2% from about 0.35 on). This is one part of the list.
# System: MvaT
# Test: PBM 8-mer E-score (mean of HK and ME arrays) (E-score (dimensionless, -0.5 to 0.5)); higher = stronger relative binding preference; most listed sequences are background and not binding sites
# Summary of the method: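 Reported values are rank-based E-scores, taken as the mean of two universal arrays and parsed with a custom script. Each 8-mer score falls between -0.5 and 0.5. The arrays, ME and HK, were double-stranded 60-mers with a constant 25-mer primer region and a variable 35-mer region covering all 8-mers. They were probed, by an earlier protocol, with full-length P. aeruginosa MvaT carrying an N-terminal glutathione S-transferase fusion.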
row,Sequence,PBM 8-mer E-score
1,AGCTGCTC,-0.175
2,AAAGGTGC,-0.199
3,GGGACTAA,-0.0374
4,CACGCAAA,-0.0756
5,AATTTCCA,0.219
6,GGTAGGCA,-0.167
7,CAGCTTAC,-0.0618
8,ATCGTACC,-0.17
9,AAGTCCAA,0.119
10,TAAAGGTA,0.156
11,CACTAAAG,0.099
12,CTTTGATC,-0.016
13,ATACCTCA,0.0702
14,ATTACAAC,0.338
15,AAGACAAA,0.253
16,CAGCGGAC,-0.0569
17,ACTTCCTC,-0.0365
18,CAGCCCTG,-0.254
19,CTGGATTC,-0.0735
20,CGTTCCGC,-0.191
21,AGCTGCCA,-0.16
22,CAAACTAC,0.248
23,GCTCCCAC,-0.306
24,ATTTTCAA,0.175
25,ACATAGAA,0.0632

row,Sequence,PBM 8-mer E-score
1,CCCACTTA,0.0114
2,CGCAACAG,-0.0736
3,CCAGATCG,-0.179
4,AGTACACA,-0.0147
5,GCTTTCGA,-0.0458
6,CACCTAAC,-0.0532
7,CTGGTTTA,0.21
8,TCTCGACA,0.0103
9,ATTGTTTC,0.279
10,ATGTCAGG,-0.0804
11,CCCGAGGA,-0.335
12,CAACTGTA,0.0199
13,CCACTTCG,-0.164
14,AGAGAAAG,-0.0588
15,AACAGCTG,-0.208
16,AACTGCAC,0.132
17,GCTGAAGA,-0.139
18,CGACGCAG,-0.275
19,TCCCGTAA,-0.0191
20,ATTTGCTC,0.0823
21,AGATTGTG,0.0417
22,CAGCTACC,-0.311
23,CAATCCGG,-0.16
24,ATTGCTCA,0.0587
25,AAGGAGCC,-0.312

row,Sequence,PBM 8-mer E-score
1,AAACTTTC,0.312
2,AGGGGCGC,-0.251
3,ACAGGCGT,-0.178
4,ATCTTTAA,0.275
5,ACTTATAT,0.424
6,CGGTGTTC,-0.144
7,AGGAGGAG,-0.283
8,CTTTGATA,0.0367
9,CAAAGCAG,-0.000532
10,CCATGCTC,-0.185
11,CAAAAGAA,0.0186
12,CTCTGTGC,-0.109
13,CAAGATTA,0.204
14,CTTGTCTC,-0.131
15,AAAGCCCC,-0.306
16,CAGAGAAA,-0.00544
17,ATCGTGTC,-0.0975
18,AATTTACG,0.241
19,ACCAGTCG,-0.162
20,AAGTCGGC,-0.0898
21,GAGATGCA,-0.155
22,ATGCTGGG,-0.0999
23,AGGCGAAT,0.153
24,GGTACGAA,-0.031
25,GCTCACAC,-0.19

row,Sequence,PBM 8-mer E-score
1,CAATCCCA,-0.0152
2,ATACATGG,0.0464
3,CGCTTGAA,-0.0274
4,AAACAATC,0.06
5,ATTAATGA,0.363
6,ACGTGAGG,-0.104
7,ATCAGAGG,-0.21
8,CAGACCGG,-0.125
9,CTGAATCA,-0.061
10,GCATGGAC,-0.155
11,GTTGTTTA,0.181
12,AGGCCAAC,-0.137
13,CGAGACAC,-0.128
14,ACTCTAGA,0.0846
15,ATCTTGGA,0.0448
16,ATAAACGA,0.284
17,CAACGACG,-0.0325
18,AGCGTGTG,-0.0365
19,GCGGCCGC,-0.206
20,ACGAAGTC,-0.289
21,ACACTCAT,0.0197
22,CCCTAATC,-0.103
23,CATGCCCA,-0.15
24,ACGAAAGG,-0.0998
25,GCGGTTAA,0.119

row,Sequence,PBM 8-mer E-score
1,GACCTAGC,-0.145
2,CTCGTGAA,-0.224
3,CCATCGGA,-0.255
4,CACGAGAA,-0.135
5,GCTTTTAC,-0.0486
6,GTGAACGA,-0.0266
7,ACGGTTTA,0.136
8,ACTTATCT,0.262
9,AGAGGCCG,-0.259
10,ATATAAAA,0.431
11,CCGGCACA,0.0625
12,GCATAACA,0.0163
13,CGATCGAG,-0.137
14,ATTGATGC,-0.151
15,GACGTCAA,-0.0837
16,ACGCGTCT,-0.0662
17,AGTGCCCG,-0.199
18,CTGCGCTC,-0.103
19,GCAAGTGC,-0.0178
20,AACCCTAA,-0.00373
21,ATAGAAGG,-0.18
22,AGCCCCTG,-0.262
23,ATGATGTG,0.0462
24,ATAGGTCC,-0.182
25,AACGTAAA,0.22

row,Sequence,PBM 8-mer E-score
1,AACGGCGC,-0.0108
2,CGTCCGAA,-0.119
3,GTCTTTTA,0.21
4,CACGGCAG,-0.214
5,AGATTTTC,-0.143
6,CGTCAGAC,-0.24
7,ACAGGGCC,-0.038
8,AACCGTTG,-0.0901
9,CGTGGACA,-0.0353
10,ACGGTCGA,-0.241
11,CGCATGCG,-0.12
12,AAAACTGC,0.0676
13,CTAGGAAC,-0.145
14,CTACAGCC,-0.106
15,AAAGCCGT,-0.118
16,CTGAATGA,-0.134
17,GCACGGGC,-0.125
18,ATCTTTTA,0.249
19,ACTCAGGA,-0.116
20,GCCGCGCA,-0.162
21,AAGATCGG,-0.106
22,GCGGTAAC,-0.191
23,AAAACGTG,-0.151
24,AACGAAGA,0.03
25,GGCCGAAA,-0.059

row,Sequence,PBM 8-mer E-score
1,CTCCTTGC,-0.19
2,AGAATGGG,-0.133
3,CCTATGGC,-0.289
4,AAACGGTC,-0.208
5,ATGGAACA,0.137
6,AGGGAAAC,-0.0837
7,TATGATCA,0.241
8,AGAGGTAA,0.0272
9,GATCCGAA,0.0726
10,CCCTTAGC,-0.265
11,CGTTAAAC,0.141
12,CACTAAAA,0.225
13,GGAAAAGA,-0.0229
14,ATTACGGA,0.227
15,AGGATCTA,-0.157
16,GATGTAAA,0.151
17,TCGTAACA,-0.0611
18,AATCCCGT,0.00366
19,GGCCGCAC,-0.267
20,AATTCAAC,0.191
21,CGATGGAC,-0.23
22,ATATTTGG,0.177
